Experimental data as given in PMC10726135.
Some of the results follow. At the low end of the ranking the order means little. Measured with an extract: partners may take part in the binding.

The sequences below were run against T1, HNF4alpha2 (COS-7 nuclear extract) (UniProt P41235) (assay: protein-binding microarray). Conditions: COS-7 nuclear extract on double-stranded Agilent 4x180k PBM; binding buffer, salt, pH and temperature not given; high values mean tight binding; double strand, one strand shown; sequences stand for … in …GCCTAGGGAGATTAGAGTATCGGTCGA.
T1 sequence: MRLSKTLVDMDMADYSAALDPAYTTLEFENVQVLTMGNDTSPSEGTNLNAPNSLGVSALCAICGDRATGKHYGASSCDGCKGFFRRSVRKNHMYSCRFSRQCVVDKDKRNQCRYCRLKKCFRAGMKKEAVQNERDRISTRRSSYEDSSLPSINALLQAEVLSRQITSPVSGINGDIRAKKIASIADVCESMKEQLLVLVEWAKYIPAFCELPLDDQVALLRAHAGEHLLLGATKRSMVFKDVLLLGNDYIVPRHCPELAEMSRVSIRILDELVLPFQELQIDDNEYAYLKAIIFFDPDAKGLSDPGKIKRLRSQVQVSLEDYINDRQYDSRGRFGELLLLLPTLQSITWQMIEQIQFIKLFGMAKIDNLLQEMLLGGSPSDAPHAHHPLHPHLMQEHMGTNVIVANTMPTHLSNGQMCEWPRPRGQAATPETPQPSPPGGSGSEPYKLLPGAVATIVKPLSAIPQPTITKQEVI
Sequence AGTTTTTGCCCTTAAGCAGCATGTAGTTTA has a binding signal (log2 normalized intensity) of 0.375. Sequence AATCTTCAGCTGCCTTTTGCCAGGCTACAG has a binding signal (log2 normalized intensity) of -1.17. CAAGATTTGGTGTTACCTTTGGACTGTCCT gave a binding signal (log2 normalized intensity) of 4.79. Work on GATGATCAGTAAGGAGAGGGGGCGGGGAGA yielded a binding signal (log2 normalized intensity) of -1.13. TACTCAATAACCACATGAATACACATAATG gave a binding signal (log2 normalized intensity) of -0.904. With TCCTACAAGGGAGATAAACTTTATCTCCCT the binding signal (log2 normalized intensity) was -1.09. AAGGTAAGTGACCCTGGTCTTTGCCCTTTC gave a binding signal (log2 normalized intensity) of 4.87. Work on ATCTTACTTTGAGGTGTTCTCTGGGGTTAG yielded a binding signal (log2 normalized intensity) of 1.97. With GTCTCCAGGCAAACTACAGTTTCTGTTTTC the binding signal (log2 normalized intensity) was 0.0797. GCTGTGCCTGAATGCAGGGAGCAGAGTCCC was tested, and the binding signal (log2 normalized intensity) was -0.435. Sequence CAATCTTGAGATAAGTACACAAAAGAGCTT has a binding signal (log2 normalized intensity) of -1.07. Sequence ATCATCACGGTGGACATTGTCCAAGGGCTG has a binding signal (log2 normalized intensity) of 1.28. GCCCTCAGGGAGCTCCAGCACTGGGGGACC was tested, and the binding signal (log2 normalized intensity) was -1.11. TGGCTGCTGCTCTCAACTTTCCCTCAGTTC showed a binding signal (log2 normalized intensity) of -1.18. TTCAAACACAGGATTGAACCTCTGGAATTC showed a binding signal (log2 normalized intensity) of 1.58. In the case of TTTCCAGCTTTGATAGTCTGCTACCATCAG, the binding signal (log2 normalized intensity) is reported as -1.12. In the case of AAGGACTGAGATAAGAGAAGGGGTCAGGTA, the binding signal (log2 normalized intensity) is reported as 1.52. Sequence TCTTCCCCTCCTTCAGGTCAAGAGGGCCTC has a binding signal (log2 normalized intensity) of 2.29. AAGTCCATCTGGGCAAGGTGTCAACCTTCA was tested, and the binding signal (log2 normalized intensity) was 0.12. Sequence AAAGGTCATATCCAAAATATTTGCAGTGAG has a binding signal (log2 normalized intensity) of 1.79. For ACAGTTCGAACAGTTGGCCACCTTTGGCCG, the binding signal (log2 normalized intensity) was 4.2. CCCAATGCAGTACTATGCAATAACCAGGGA was tested, and the binding signal (log2 normalized intensity) was -0.648. Work on TAACTGAAAGTCATGCTGAAGTACAGATTC yielded a binding signal (log2 normalized intensity) of -0.0105. TTGCACTGTGCTTTGTTTACTTAACCTTTG was tested, and the binding signal (log2 normalized intensity) was 4.05. Sequence ATTCAAGAAAGGGGCAAAGTTTATGTGTGA has a binding signal (log2 normalized intensity) of 2.76. For ACACCTTTTCTAGCTGAGTTGACCTGTGTT, the binding signal (log2 normalized intensity) was 4.02. GTCAGGGAAGGTGCCAAGCATTCTAATCAT showed a binding signal (log2 normalized intensity) of -1.07. CTCAGTGTTCCACAGCAAGTAAATTCCGGG showed a binding signal (log2 normalized intensity) of 0.0134. With TTGAAAGGGACTTAGAATCGAATTGTGAAA the binding signal (log2 normalized intensity) was -0.196. In the case of AAGAAATAAAAACAGCTGGGTTCCAAAAGG, the binding signal (log2 normalized intensity) is reported as 0.155. Work on TGTCCTTGGCCTCACAGACAGATAGCAAAA yielded a binding signal (log2 normalized intensity) of -1.07. With CTCTGATCTGACCCCTTCTTGACCTGCGTA the binding signal (log2 normalized intensity) was 3.59. Sequence TTATCAGGACTTTGTGATTACATTGAGTCC has a binding signal (log2 normalized intensity) of 1.76. For GTGTTCCCAGGGGCTCCCACCAGGGGGAGG, the binding signal (log2 normalized intensity) was -1.03. Sequence ATTTAGAGACAATCACTTGTATCGCCTGAA has a binding signal (log2 normalized intensity) of -0.547. TGAGAGAGAAGGCAAGATTTTGTCCTGAGT was tested, and the binding signal (log2 normalized intensity) was -0.289. TCTTTTTGCCACTAGGGGTCACTGTCACAT was tested, and the binding signal (log2 normalized intensity) was 2.7. TTACAGTGTGAATCTCCAACAAGGCAGGAG showed a binding signal (log2 normalized intensity) of -0.93. ACCTGTCTCTCTGCATTCCTCCTGGCCTCT showed a binding signal (log2 normalized intensity) of 1.32. Work on GGAAGTGGGGAAGAAGTGTTCCCCTGTCAC yielded a binding signal (log2 normalized intensity) of 1.36. TCTGGGGTATAAAGGTCAGGGATAGAACTG gave a binding signal (log2 normalized intensity) of 2.91. TTCAGATACAAGCTAATCTGACCAAGTGAA gave a binding signal (log2 normalized intensity) of -0.303. GGGTTCCAAGACCAAGCAAGCCAGTCAGAA showed a binding signal (log2 normalized intensity) of -1.16. In the case of CCCCCAAGGCATGGGACCTTTGCCCTTCTT, the binding signal (log2 normalized intensity) is reported as 6.09. With ATAGTTCAGCCATCAGGTAACATATTGTCC the binding signal (log2 normalized intensity) was 0.597. TGTGTGTTCTGGACTTCTCTGCCCTCTTCC showed a binding signal (log2 normalized intensity) of 2.98. GTTATGAGTCTGTTGTCTAACATTTTTGAC was tested, and the binding signal (log2 normalized intensity) was 0.629. With CATGTTTACTTTTGCAAGGTTTGTTCTTAT the binding signal (log2 normalized intensity) was 1.85. AGGAAAAAAATAGGAGACTGTCTTAGGAAA gave a binding signal (log2 normalized intensity) of -1.16. In the case of AGGAATGAGACATGAATCCATCCCACCTCA, the binding signal (log2 normalized intensity) is reported as -0.775. For GCCACGGTCAGCAATGTGGACTTTGTCCTG, the binding signal (log2 normalized intensity) was 9.67. In the case of CAGAAGGTCAGAGATCAGGTCTCTTTTATG, the binding signal (log2 normalized intensity) is reported as 1.16. Sequence TTGCTCATGACTATTCTCTAAACTCTGGGC has a binding signal (log2 normalized intensity) of 0.606. With CAGGGAAATATGTTCCACCCAGGGTGGCAG the binding signal (log2 normalized intensity) was -0.87. In the case of ATCACAAGACATGAAGATGCAGAACAAGGT, the binding signal (log2 normalized intensity) is reported as -0.697. CACTTTGAGCAAGATAATGACTAAGGCAGG was tested, and the binding signal (log2 normalized intensity) was -1.23. For CCCCCACTGCCTGACCCCAAGTAATAGCCG, the binding signal (log2 normalized intensity) was 5.25. CCTGAAACTAGACCAAGAAGACTTTGGGGG was tested, and the binding signal (log2 normalized intensity) was -1.09. GGATAATGTGCCCTTTGTACCTGGGGCAAA gave a binding signal (log2 normalized intensity) of 5.03. GCCTTTTGGCTAAAGTCCAAATTCCTTGGA was tested, and the binding signal (log2 normalized intensity) was 3.74. In the case of GGACCCTGTTACCACACCACAGCGGGGCCT, the binding signal (log2 normalized intensity) is reported as -1.1. CCTGGCCCTCTGGGTTGGAACCCCGTTTCT showed a binding signal (log2 normalized intensity) of 0.586. GACGTTATCAGCAGGAGGAGGAGCCAGTGA was tested, and the binding signal (log2 normalized intensity) was -0.808. AAAGTTTGAGGAGAGTCAAAGGTTAATGAG showed a binding signal (log2 normalized intensity) of 2.84. Work on CCAGGCCAACCGGTTCCACAGTATCCCTTG yielded a binding signal (log2 normalized intensity) of -1.1. GAGGATATCCCTCCGCCTCCCTCCCCCTTT gave a binding signal (log2 normalized intensity) of 5.4. In the case of TGGTGCTGATGTGTTCGCCCCTAGGACACG, the binding signal (log2 normalized intensity) is reported as 1.37. With ATTGGTTTACAGCACTTCATCCTTATGTAA the binding signal (log2 normalized intensity) was 1.4. AATAGTACACATCAAAGTATGAGAGCCTGA gave a binding signal (log2 normalized intensity) of -1.14. For CATTCTTTTCCCCATACCAGGCAGTTTCCC, the binding signal (log2 normalized intensity) was 2.57. CCTCCAGGCCCCAGCCACGCCCTCTAACCC was tested, and the binding signal (log2 normalized intensity) was 2.92. With CAAGTTTGAACTGCACAGGCCTACTTATAG the binding signal (log2 normalized intensity) was -1.15. Sequence TTCACCAATTTCCCCCATGAAATTGAGATA has a binding signal (log2 normalized intensity) of 3.17. GAACAGGTTCAGATAAGACAAGCTCTGTTT was tested, and the binding signal (log2 normalized intensity) was -1.14. With TGGCTGCATCCTTCTCCTCCCCTCCCCCCA the binding signal (log2 normalized intensity) was 5.97. In the case of CTCCTCCCCCCGCCGCATCTACCAGCGTAA, the binding signal (log2 normalized intensity) is reported as 4.2. In the case of ACCTCACAAAGGGGGCCTGAAGGGTGTTGT, the binding signal (log2 normalized intensity) is reported as 0.874. ACAGGCTTAACATAAAGGGTTGAAGAAAGA was tested, and the binding signal (log2 normalized intensity) was -1.08. Work on GTGCACTTTGACCCTGCTGTAGTGTGTAAG yielded a binding signal (log2 normalized intensity) of 4.93. AGCAGATGCTTCCCAGAAAGAATGAGCGGG gave a binding signal (log2 normalized intensity) of -1.05. GCACTGAGGAATGGAAGGACCTTGGACTGA gave a binding signal (log2 normalized intensity) of 4.38. With CACACACAGACATAAACACAGACACACATG the binding signal (log2 normalized intensity) was -1.19. CAGAGTTCACTTTCCTCTCATTTCTGAACA was tested, and the binding signal (log2 normalized intensity) was 0.895. Work on AAAAGGACACAGGGTCTGTTTTCAAACACA yielded a binding signal (log2 normalized intensity) of -0.841. For GCAAATACAGGTGAATTTCAGTGCCCTTTG, the binding signal (log2 normalized intensity) was 3.07. GGGGGAGGGTAAATATAGTTAAAGCCAGCT showed a binding signal (log2 normalized intensity) of -1.09. TCATGATTTAGTAAGTTCAAGAAGACCTTT was tested, and the binding signal (log2 normalized intensity) was 3.54. Sequence CCCAGACACACCTGCAATGGAAAATTCCAT has a binding signal (log2 normalized intensity) of -1.07. In the case of ACGGAAGGCCGGGCCTCAAGGGAATCTGCT, the binding signal (log2 normalized intensity) is reported as -1.18. Work on TAATATTTGCAAATGACTTTGAGAGTAAGT yielded a binding signal (log2 normalized intensity) of 1.01. For AGGTCATTGTGCTGACTGGTTGGAATTCCA, the binding signal (log2 normalized intensity) was 0.632. GCTACATGATACAGCCTTTTGCCCCCAGGC gave a binding signal (log2 normalized intensity) of 4.45. TCCAAGGTTCAGCTCCATCTGAACTCTTCA was tested, and the binding signal (log2 normalized intensity) was 1.84.
